Assay results from the supplement of paper PMC4967469.
By IC50 is meant the dose at which the fit gives 50% viability; a limit (>, <) means that the fit lies beyond the doses tested. The AUC spans the tested range (256-fold, ending at the top dose) of the same fit; the more sensitive the line, the further below 1. For some of these results: An inferred top dose comes from the curve model; the source does not state it. For some of these results: Where an entry number is given, a second screen of the drug exists; the two often differ.

Experiments:
Experiment in all cases: Viability of human cancer cell lines after 72 h of drug (GDSC screen)
KU-55933 = compound: O=c1cc(-c2cccc3c2Sc2ccccc2S3)oc(N2CCOCC2)c1 [KU-55933]; conditions: top dose 10 µM
Experimental: (§1)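 Human cancer cell lines in 384-well plates, medium with 10% serum, drug for 72 h over a 256-fold dose range (nine 2-fold or five 4-fold steps up to the top dose). Adherent lines were fixed and stained with the nucleic acid dye Syto60, suspension lines read with resazurin; signal relative to control wells, capped at 0 and 100%. One two-parameter sigmoid per drug and line, fitted in a mixed model over all curves with the slope shared within a line.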

QL-X-138 = compound: C=CC(=O)Nc1cc(-n2c(=O)ccc3cnc4ccc(-c5cn[nH]c5)cc4c32)ccc1C [QL-X-138]; conditions: top dose 10.24 µM; top dose inferred
Experimental: as §1

(5Z)-7-Oxozeaenol = compound: COc1cc(O)c2c(c1)/C=C/C[C@H](O)[C@H](O)C(=O)/C=C\C[C@H](C)OC2=O [(5Z)-7-Oxozeaenol]; conditions: top dose 10 µM; top dose inferred
Experimental: as §1

CHIR-99021 = compound: Cc1cnc(-c2cnc(NCCNc3ccc(C#N)cn3)nc2-c2ccc(Cl)cc2Cl)[nH]1 [CHIR-99021]
Experimental: as §1

CP466722 = compound: COc1cc2ncnc(-n3nc(-c4ccccn4)nc3N)c2cc1OC [CP466722]; conditions: top dose 16 µM; top dose inferred
Experimental: as §1

Zibotentan = compound: COc1nc(C)cnc1NS(=O)(=O)c1cccnc1-c1ccc(-c2nnco2)cc1 [Zibotentan]; conditions: top dose 20 µM; top dose inferred
Experimental: as §1

MPS-1-IN-1 = compound: COc1cc(N2CCC(O)CC2)ccc1Nc1cc(Nc2ccccc2S(=O)(=O)C(C)C)c2cc[nH]c2n1 [MPS-1-IN-1]; conditions: top dose 20 µM; top dose inferred
Experimental: as §1

GSK269962A = compound: CCn1c(-c2nonc2N)nc2cnc(Oc3cccc(NC(=O)c4ccc(OCCN5CCOCC5)cc4)c3)cc21 [GSK269962A]; conditions: top dose 5 µM; screen: GDSC drug entry 1192; top dose inferred
Experimental: as §1

Thapsigargin = compound: C/C=C(/C)C(=O)O[C@H]1C(C)=C2[C@H]([C@@H]1OC(=O)CCCCCCC)[C@@](C)(OC(C)=O)C[C@H](OC(=O)CCC)[C@@]1(O)[C@H]2OC(=O)[C@@]1(C)O [Thapsigargin]; conditions: top dose 0.512 µM; top dose inferred
Experimental: as §1

ABT-869 = compound: Cc1ccc(F)c(NC(=O)Nc2ccc(-c3cccc4[nH]nc(N)c34)cc2)c1 [ABT-869]; conditions: top dose 1.024 µM; top dose inferred
Experimental: as §1

[1] = top dose 2.56 µM, screen: GDSC drug entry 154
[2] = top dose 10 µM, screen: GDSC drug entry 1241, top dose inferred

Cell Line | AUC (KU-55933) | IC50 (KU-55933) [µM] | AUC (QL-X-138) | IC50 (QL-X-138) [µM] | AUC ((5Z)-7-Oxozeaenol) | IC50 ((5Z)-7-Oxozeaenol) [µM] | AUC (CHIR-99021; [1]) | IC50 (CHIR-99021; [1]) [µM] | AUC (CHIR-99021; [2]) | IC50 (CHIR-99021; [2]) [µM] | AUC (CP466722) | IC50 (CP466722) [µM] | AUC (Zibotentan) | IC50 (Zibotentan) [µM] | AUC (MPS-1-IN-1) | IC50 (MPS-1-IN-1) [µM] | AUC (GSK269962A) | IC50 (GSK269962A) [µM] | AUC (Thapsigargin) | IC50 (Thapsigargin) [µM] | AUC (ABT-869) | IC50 (ABT-869) [µM]
786-0 (kidney, adherent) | 0.964 | > 10 | 0.518 | 0.713 | 0.699 | 2.16 | 0.985 | > 2.56 | 0.9 | > 10 | 0.825 | 8.58 | 0.974 | > 20 | 0.88 | 17.9 | 0.874 | 4.19 | 0.053 | < 0.002 | 0.972 | > 1.02
A172 (glioma, adherent) | 0.987 | > 10 | 0.62 | 1.35 | 0.587 | 1.07 | 0.913 | > 2.56 | 0.914 | > 10 | 0.979 | > 16 | 0.989 | > 20 | 0.953 | > 20 | 0.9 | > 5 | 0.066 | < 0.002 | 0.986 | > 1.02
A549 (lung adenocarcinoma, adherent) | 0.823 | 6.9 |  |  | 0.534 | 0.783 |  |  | 0.98 | > 10 |  |  |  |  |  |  | 0.705 | 1.28 |  |  |  | 
A673 (rhabdomyosarcoma, adherent) | 0.976 | > 10 | 0.961 | > 10.2 | 0.684 | 1.92 | 0.989 | > 2.56 | 0.947 | > 10 | 0.865 | 11.8 | 0.988 | > 20 | 0.933 | > 20 | 0.954 | > 5 | 0.212 | 0.00512 | 0.99 | > 1.02
BCPAP (thyroid, adherent) | 0.986 | > 10 | 0.581 | 1.04 | 0.335 | 0.229 | 0.869 | 1.99 | 0.766 | 3.36 | 0.896 | > 16 | 0.989 | > 20 | 0.779 | 7.38 | 0.87 | 3.93 | 0.134 | 0.00264 | 0.985 | > 1.02
BHY (head and neck, adherent) | 0.96 | > 10 | 0.714 | 2.59 | 0.716 | 2.56 | 0.986 | > 2.56 | 0.98 | > 10 | 0.808 | 8.29 | 0.987 | > 20 | 0.882 | > 20 | 0.977 | > 5 | 0.171 | 0.0032 | 0.979 | > 1.02
BPH-1 (prostate, adherent) | 0.947 | > 10 |  |  | 0.573 | 1.01 | 0.94 | > 2.56 | 0.933 | > 10 | 0.803 | 8.91 | 0.977 | > 20 | 0.772 | 8.57 | 0.919 | > 5 | 0.323 | 0.00965 | 0.976 | > 1.02
CAL-54 (kidney, adherent) | 0.896 | > 10 | 0.929 | > 10.2 | 0.585 | 1.11 | 0.977 | > 2.56 | 0.746 | 3.58 | 0.81 | 9.93 | 0.982 | > 20 | 0.957 | > 20 | 0.927 | > 5 | 0.941 | > 0.512 | 0.977 | > 1.02
CHP-134 (neuroblastoma, suspension) | 0.901 | > 10 | 0.674 | 2.25 |  |  |  |  |  |  | 0.776 | 8.2 | 0.977 | > 20 | 0.854 | > 20 |  |  |  |  | 0.98 | > 1.02
ChaGo-K-1 (non-small cell lung carcinoma, adherent) | 0.982 | > 10 | 0.813 | 6.69 | 0.681 | 2.19 | 0.985 | > 2.56 | 0.943 | > 10 | 0.862 | > 16 | 0.981 | > 20 | 0.937 | > 20 | 0.894 | > 5 | 0.326 | 0.00966 | 0.983 | > 1.02
EBC-1 (lung squamous cell carcinoma, adherent) | 0.942 | > 10 | 0.779 | 4.74 | 0.693 | 2.35 |  |  |  |  | 0.851 | 14.7 | 0.983 | > 20 | 0.978 | > 20 | 0.845 | 4.31 | 0.449 | 0.0227 | 0.983 | > 1.02
GAMG (glioma, adherent) | 0.882 | > 10 | 0.531 | 0.78 | 0.601 | 1.2 | 0.981 | > 2.56 | 0.973 | > 10 | 0.745 | 5.25 | 0.978 | > 20 | 0.929 | > 20 | 0.858 | 4.43 | 0.265 | 0.00656 | 0.977 | > 1.02
H2591 (mesothelioma, adherent) | 0.94 | > 10 | 0.788 | 6.01 | 0.824 | 8.53 | 0.981 | > 2.56 | 0.91 | > 10 | 0.868 | > 16 | 0.981 | > 20 | 0.973 | > 20 | 0.912 | > 5 | 0.382 | 0.0137 | 0.979 | > 1.02
